Test results: PubChem BioAssay AID995 (National Center for Advancing Translational Sciences (NCATS), 2007)
Where “and” joins values, the source holds several entries; their conditions need not be identical. Equal values may be shown once. The whole screen tested about 72,000 compounds, of which about 710 (0.99%) were called active. Inconclusive results, whose numbers are uncertain, are shown with a selection of clear calls. Calls come from the whole dose curve; as a rule, active = well fitted inhibition curve with a large enough effect; inconclusive = small, poorly fitted or top-dose-only effect; inactive = no such curve, though single readings can be large or run the other way. Potencies of inconclusive entries are doubtful fits and often do not repeat.

Assay: qHTS Assay for Inhibitors of the ERK Signaling Pathway using a Homogeneous Screening Assay; note: nearly all actives have a fitted effect of over 55% in size
Details: HEK293-V1b, vasopressin-stimulated pERK AlphaScreen; activity, negative = inhibition: at 57.5 µM (top of the series) unless noted
Description: qHTS Assay for Inhibitors of the ERK Signaling Pathway using a Homogeneous Screening Assay; note: nearly all actives have a fitted effect of over 55% in size
NIH Chemical Genomics Center [NCGC]
NIH Molecular Libraries Screening Centers Network [MLSCN]
Assay Submitter (PI): Dr. Wei Zheng, NCGC/NIH
The Ras/extracellular-signal-regulated kinase (ERK) mitogen activated protein (MAP) kinase signaling pathway (ERK1/2 cascade) plays is a key role in transmitting signals from the cell surface to the nucleus (Nishida and Gotoh 1993; Chang and Karin, 2001). The cascade is initiated by the small G-protein Ras, which recruits Raf […], where activation occurs. Alternatively, this pathway can be activated by elevating intracellular cAMP.
Activation of the ERK pathway is essential in increased cell division and cell survival. Sustained and constitutive activation of the ERK pathway, however, has been linked to uncontrolled cell proliferation, increased cell survival, and tumor progression. Thus, the ERK has been as an attractive target for cancer chemotherapy in the past few years (Sebolt-Leopold and Herrera, 2004). Given its physiological and pathological importance, assessment of ERK phosphorylation has been broadly performed in both basic research and drug discovery. Most assays for the measurement of ERK phosphorylation use the antibody-based detection methods, such as western blot and ELISA. These assays require multiple reagent additions with cell wash steps and are not suitable for high throughout screening.
The current cell-based ERK phosphorylation assay was performed using AlphaScreen platform. AlphaScreen is a two bead-based proximity-dependent chemical energy transfer luminescent assay platform. The assay reagents (ERK SureFire(TM) kit) were supplied from TGR BioSciences (Australia). In the presence of specific antibodies, phosphorylated ERK will bring "donor" and "acceptor" beads to a proximity range (<200 nm), and subsequently lead a chemical luminescent reaction upon exciting donor beads with 680 nm laser. To exclude the assay-related false positives, we used a biotinylated rabbit IgG to perform counter-screen. The biotinylated antibody mimics the phosphorylated ERK1/2 for bringing streptavidin coated beads and protein-A coated beads to a proximity range for the AlphaScreen detection.
NCGC Assay Protocol Summary:
HEK293 cells stably expressing type-1 vasopressin receptor (V1b) were maintained in DMEM medium (Invitrogen, Carlsbad, CA) at 37C under a humidified atmosphere containing 5% CO2 and 95% air. The medium contained 10% FBS, 2 mM L-glutamine, non-essential amino acid, pyruvate and 50 U/ml penicillin and 50 ug/ml streptomycin (Invitrogen). The aliquots of frozen cells were stored at -135C and used for the compound screening. All compounds were screened as titrations from 0.6 nM to 46 uM final concentration. Vasopressin was used to stimulate the ERK phosphorylation pathway. The ERK phosphorylation in cells was determined using an AlphaScreen assay kit provided by PerkinElmer. Data were normalized to the controls for basal activity (DMSO only) and 100% activation (25 nM vasopressin). AC50 values were determined from concentration-response data modeled with the standard Hill equation.
(1) Seed 4 ul/well of resuspended frozen HEK293 cells containing 2000 cells in white 1536-well plates for overnight with 1% FBS at 37C under a humidified atmosphere containing 5% CO2 and 95% air.
(2) Add 23 nL compounds in DMSO solution. The final titration was 0.6 nM to 46 uM.
(3) Incubate at 37C for 30 min.
(4) Dispense 0.5uL vasopressin (25 nM in final)
(5) Incubate at 37C for 5 min.
(6) Dispense 0.5uL of 1:2 diluted 5x lysis buffer.
(7) Incubate at 37C for 10 min.
(8) Dispense 1.5uL of mixture of activation buffer and reaction buffer with AlphaScreen beads (streptavidin donor beads and protein-A acceptor beads, 10 ng/well for each).
(9) Incubate at room temperature for 5 hr.
(10) Detect the assay plate in an EnVision plate reader (PerkinElmer) using the AlphaScreen detection mode.
[…]
% is set by controls: 0 for no effect and ±100 for the full control effect; potency is the fitted concentration of half-maximal effect; tags give direction and shape of the fitted curve.

Potency, inactive:
O=C(CSc1nnc(-c2ccco2)n1Cc1ccccc1)c1ccccc1
CSc1cccc(NC(=O)CN(c2cc(C)ccc2C)S(C)(=O)=O)c1
COC(=O)C1C(=O)c2c([nH]c(C(=O)OCC3CCCO3)c2C)CC1C (stereo unspecified)
COc1cccc(Cn2c(=O)c(-c3cccc(C#N)c3)nc3cnc(Nc4ccccc4)nc32)c1
Cc1cnc(CNc2ccnc(-c3cccc(NS(C)(=O)=O)c3)n2)cn1
CC[C@H](C)[C@H](N)C1=N[C@H](C(=O)N[C@@H](CC(C)C)C(=O)N[C@@H](CCC(=O)O)C(=O)N[C@@H](C(=O)N[C@H]2CCCCNC(=O)[C@@H](CC(N)=O)NC(=O)[C@@H](CC(=O)O)NC(=O)[C@@H](Cc3cnc[nH]3)NC(=O)[C@@H](Cc3ccccc3)NC(=O)[C@@H]([C@@H](C)CC)NC(=O)[C@@H](CCCN)NC2=O)[C@@H](C)CC)CS1
COc1cccc(C(=O)Cn2c(=N)n(C)c3ccccc32)c1
O=C(Nc1ccc(N2CCOCC2)cc1)c1cnsn1
COc1ccc(NC(=O)C2CCCN2S(=O)(=O)c2ccc3c(c2)CCC(=O)N3)cc1 (stereo unspecified)
O=C(Nc1ccc2c(c1)OCO2)C1COc2ccccc2O1 (stereo unspecified)
COc1ccc(C2C3=C(N=C4SCC(=O)N42)c2ccccc2CC3)cc1 (stereo unspecified)
Cc1cccc(-c2noc(-c3ccccc3C(=O)NCC3CCCO3)n2)c1 (stereo unspecified)
Cc1ccc2cc3cc(C(=O)NCCCN4CCCCCC4)oc3nc2c1
CCCCCCCC(=O)O[C@H](CC(=O)O)C[N+](C)(C)C
CCC1c2ccc(C)n2CCN1C(=O)Nc1ccccc1OC (stereo unspecified)
CSCCC(N)C(=O)NC(CC(C)C)C(=O)NC(Cc1ccccc1)C(=O)O (stereo unspecified)
COCC(=O)N1CCC2(CCCN(Cc3nccs3)C2)CC1
Cc1ccc(-c2nnn(CC(=O)N(Cc3cccs3)C(C(=O)NC(C)(C)C)c3ccc(C)o3)n2)o1 (stereo unspecified)

Potency, inconclusive:
CC(C)c1nnc(NC(=O)c2cnccn2)s1 39.8 µM [inhibitor, single point]
O=c1c2c(-c3ccco3)csc2nc(SCc2cn3cccnc3n2)n1-c1ccccc1 12.6 µM [inhibitor, partial curve]
Cc1ccccc1-c1nc(N2CCOCC2)c2ccccc2n1 3.16 µM [inhibitor, full curve]
COc1cccc(-c2cc(NCc3cccc(C)c3)ncn2)c1 12.6 µM [inhibitor, partial curve]
COCCn1c(SCC(=O)Nc2cccc(OC)c2)nnc1-c1ccc(Cl)cc1 20 µM [inhibitor, partial curve]
CC(=O)c1ccccc1NS(=O)(=O)c1c(C)nn(-c2ccccc2)c1C 39.8 µM [inhibitor, single point]
CCOc1ccc(Cc2nccc3cc(OCC)c(OCC)cc23)cc1OCC 3.98 µM [inhibitor, partial curve, poor fit] and 12.6 µM [inhibitor, partial curve]
COc1cccc(-c2nc(CS(=O)(=O)CC(=O)N3CCN(C4CCCCC4)CC3)c(C)o2)c1 31.6 µM [inhibitor, partial curve]
CCOC(=O)C(/C(N)=N/C(=O)Nc1ccccc1)=C(\C)O 12.6 µM [inhibitor, partial curve]
COc1cc2c(cc1OC)-c1nnc(-c3cccs3)n1C(C)(C)C2 15.8 µM [inhibitor, partial curve]
Cc1nc(N2CCN(C(=O)c3ccco3)CC2)c2oc3ccccc3c2n1 31.6 µM [inhibitor, single point]
O=S(=O)(O)c1cc(S(=O)(=O)O)c2c(N=Nc3cccc4ccccc34)c(O)ccc2c1 6.31 µM [inhibitor, single point]
Cc1cc2c(c(=O)n1CCN(C)C)C(c1ccc(Cl)cc1)C(C#N)=C(N)O2 (stereo unspecified) 25.1 µM [inhibitor, partial curve]
COc1ccc2noc3c2c1C(=O)c1ccccc1-3 31.6 µM [inhibitor, single point]
CCNc1ncc2nc(C)c(=O)n(C)c2n1 12.6 µM [inhibitor, partial curve]
O=C(/C=C/Nc1ccc(F)c(Cl)c1)c1ccco1 20 µM [inhibitor, single point]
COc1ccc(CNc2ncnc3ccc(-c4ccoc4)cc23)c(OC)c1 39.8 µM [inhibitor, single point]
Fc1ccc(Nc2nc(-c3cccnc3)nc3ccccc23)cc1 31.6 µM [inhibitor, single point]
COc1cccc(OC)c1C(=O)Nc1cc(Cl)ccc1N1CCOCC1 39.8 µM [inhibitor, single point]
OCC1OC([S-])[C@H](O)C(O)C1O.[Au+] (stereo partly specified) 31.6 µM [inhibitor, single point]
CC1(C)Cc2ccccc2-c2nc(NCCCO)n(-c3ccccc3)c(=O)c21 25.1 µM [inhibitor, single point]
N#CC1=C(SCc2ccccc2)NC(=O)CC1c1ccc(O)cc1 (stereo unspecified) 31.6 µM [inhibitor, single point]
COc1ccc(-c2cc(=O)c3c(OC)c(OC)c(OC)c(OC)c3o2)cc1OC 31.6 µM [inhibitor, single point]
Cc1ccc(S(=O)(=O)N2CCCCC2)cc1C(=O)Nc1ccc2cn[nH]c2c1 25.1 µM [inhibitor, single point]
FC(F)Sc1nnc(-c2cccs2)n1-c1ccccc1 12.6 µM [inhibitor, partial curve]
O=C(COc1ccc(-c2nnco2)cc1)N1CCN(S(=O)(=O)c2ccc3ccccc3c2)CC1 31.6 µM [inhibitor, single point]
O=C(NCc1ccc2c(c1)OCO2)C1CCN(c2ccc(S(=O)(=O)N3CCCC3)cc2)CC1 31.6 µM [inhibitor, partial curve]
COc1cc2cc(C(c3nnnn3C3CCCC3)N3CCc4ccccc43)c(=O)[nH]c2cc1OC (stereo unspecified) 25.1 µM [inhibitor, single point]
COc1ccc(CNc2nc(-c3c(C)noc3C)nc3ccccc23)c(OC)c1 39.8 µM [inhibitor, single point]
C[C@@H](CN1CCC(Cc2ccccc2)CC1)[C@H](O)c1ccc(O)cc1 12.6 µM [inhibitor, partial curve]
CC(C)N(Cc1nc(-c2ccccc2)no1)C(=O)COc1ccccc1 39.8 µM [inhibitor, single point]
CCOc1ccc(NC2c3ccccc3C(=O)N2Cc2ccco2)cc1 (stereo unspecified) 15.8 µM [inhibitor, partial curve]
NC(=O)c1ccsc1NC(=O)CSc1ccccc1F 3.16 µM [inhibitor, single point]
O=S(=O)(c1cccc(C(F)(F)F)c1)N1c2ccccc2-n2cccc2[C@H]1c1cccnc1 7.94 µM [inhibitor, single point]
COc1ccccc1NC(=O)Cc1nn(C)c(=O)c2ccccc12 39.8 µM [inhibitor, single point]
CCOc1cc2[nH]c(=S)n(CCCN3CCOCC3)c(=O)c2cc1OCC 25.1 µM [inhibitor, partial curve, poor fit]
O=C(Oc1ccccc1)N1CCC2(CC1)CCN(c1ccccc1)CC2 39.8 µM [inhibitor, single point]
CN=CC1=C(O)c2ccccc2C1=O 20 µM [inhibitor, partial curve]
CCCc1cc(-c2[nH]ncc2-c2ccc3c(c2)OCCCO3)c(O)cc1O 20 µM [inhibitor, partial curve]
CCn1c(=O)c2cc(C(=O)N3CCOCC3)sc2c2ccccc21 15.8 µM [inhibitor, partial curve]
O=C(c1ccco1)N1CCN(c2ncnc3c2[nH]c2ccc(Br)cc23)CC1 25.1 µM [inhibitor, single point]
CC1=C(C(=O)OC2CCCCCCC2)C(c2ccc(O)cc2)NC(=O)N1 (stereo unspecified) 0.251 µM [inhibitor, full curve, poor fit]
OCc1cc([C@@H](O)CNCCCCCCOCCCCc2ccccc2)ccc1O 39.8 µM [inhibitor, single point]
CN(C)c1ncc2nc(-c3cn(C)c4ccccc34)c(=O)n(C[C@H]3CCCO3)c2n1 12.6 µM [inhibitor, partial curve]
C=CCSc1nnc2nc3c(nn12)c1cc(C)ccc1n3CC=C 25.1 µM [inhibitor, partial curve, poor fit]

activity, negative = inhibition, inactive:
CC(=O)OCC1OC(C#CCCc2ccccc2)C=CC1OC(C)=O (stereo unspecified) 1.44% [at 11.5 µM]
O=C(O)c1cccc(C[C@H](Br)C(=O)O)c1 -4.95% [at 11.5 µM]
C/C(CCN1CCc2nc(-c3ccccc3)c(-c3ccccc3)cc2C1)=N\O[C@@H](C)CN1CCCCc2nc(C)c(C)cc21 25.1% [at 11.5 µM]
